# Measurements taken from patent publication US20200002439A1 (GENSUN BIOPHARMA, published 2020).
# T1: recombinant human VEGF 165 (human, UniProt P15692-4 27-191)
# T1 construct: Bought protein
# T1 sequence (looked up): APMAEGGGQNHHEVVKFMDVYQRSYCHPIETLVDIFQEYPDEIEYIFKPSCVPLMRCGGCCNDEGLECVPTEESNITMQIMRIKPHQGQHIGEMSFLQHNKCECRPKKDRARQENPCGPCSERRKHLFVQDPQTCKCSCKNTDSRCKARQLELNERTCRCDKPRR
# B1: TS-ZPLB-1 (other)
# heavy: SDTGRPFVEMYSEIPEIIHMTEGRELVIPCRVTSPNITVTLKKFPLDTLIPDGKRIIWDSRKGFIISNATYKEIGLLTCEATVNGHLYKTNYLTHRQTNTIIDVVLSPSHGIELSVGEKLVLNCTARTELNVGIDFNWEYPSSKHQHKKLVNRDLKTQSGSEMKKFLSTLTIDGVTRSDQGLYTCAASSGLMTKKNSTFVRVHEKGGGGSGGGGSGGGGSQVQLVQSGAEVKKPGASVKVSCKASGYTFTSYWMHWVRQAPGQGLEWMGMIHPNSGGNNYNEKFKSRVTMTRDTSISTAYMELSRLRSDDTAVYYCARSWYGSSPYYFDYWGQGTLVTVSSASTKGPSVFPLAPCSRSTSESTAALGCLVKDYFPEPVTVSWNSGALTSGVHTFPAVLQSSGLYSLSSVVTVPSSSLGTKTYTCNVDHKPSNTKVDKRV[human IgG4 Fc with S228P (EU numbers) left out]GGGGSGGGGSGGGGSIPPHVQKSVNNDMIVTDNNGAVKFPQLCKFCDVRFSTCDNQKSCMSNCSITSICEKPQEVCVAVWRKNDENITLETVCHDPKLPYHDFILEDAASPKCIMKEKKKPGETFFMCSCSSDECNDNIIFSEEYNTSNPD
# light: DIQMTQSPSSLSASVGDRVTISCRASQDIDNYLNWYQQKPGKAPKLLIKYTSRLHSGVPSRFSGSGSGTDFTLTISSLQPEDFATYFCQQGYTLPWTFGGGTKVEIKRTVAAPSVFIFPPSDEQLKSGTASVVCLLNNFYPREAKVQWKVDNALQSGNSQESVTEQDSKDSTYSLSSTLTLSKADYEKHKVYACEVTHQGLSSPVTKSFNRGEC
# B2: Bi-ZPL-3 (bispecific antibody, human IgG1, kappa)
# heavy: QVQLVQSGAEVKKPGASVKVSCKASGYTFTSYWMHWVRQAPGQGLEWMGMIHPNSGGNNYNEKFKSRVTMTRDTSISTAYMELSRLRSDDTAVYYCARSWYGSSPYYFDYWGQGTLVTVSSASTKGPSVFPLAPSSKSTSGGTAALGCLVKDYFPEPVTVSWNSGALTSGVHTFPAVLQSSGLYSLSSVVTVPSSSLGTQTYICNVNHKPSNTKVDKRV[human IgG1 Fc left out]GGGGSGGGGSGGGGSGGGGSSDTGRPFVEMPSEIPEIIHMTEGRELVIPCRVTSPEITVTLKKFPLDTLIPDGKRIIWDSRKGFIISEATYKEIGLLTCEATVNGHLYKTNYLTHRQTNTIIDVVLSPSHGIELSVGEKLVLECTARTELNVGIDFNWEYPSSKHQHKKLVNRDLKTQSGSEMKKFLSTLTIDGVTRSDQGLYTCAASSGLMTKKESTFVRVHEK
# light: DIQMTQSPSSLSASVGDRVTISCRASQDIDNYLNWYQQKPGKAPKLLIKYTSRLHSGVPSRFSGSGSGTDFTLTISSLQPEDFATYFCQQGYTLPWTFGGGTKVEIKRTVAAPSVFIFPPSDEQLKSGTASVVCLLNNFYPREAKVQWKVDNALQSGNSQESVTEQDSKDSTYSLSSTLTLSKADYEKHKVYACEVTHQGLSSPVTKSFNRGEC
# B3: Bi-ZPL-1 (bispecific antibody, human IgG4 S228P, kappa)
# heavy: SDTGRPFVEMYSEIPEIIHMTEGRELVIPCRVTSPNITVTLKKFPLDTLIPDGKRIIWDSRKGFIISNATYKEIGLLTCEATVNGHLYKTNYLTHRQTNTIIDVVLSPSHGIELSVGEKLVLNCTARTELNVGIDFNWEYPSSKHQHKKLVNRDLKTQSGSEMKKFLSTLTIDGVTRSDQGLYTCAASSGLMTKKNSTFVRVHEKGGGGSGGGGSGGGGSQVQLVQSGAEVKKPGASVKVSCKASGYTFTSYWMHWVRQAPGQGLEWMGMIHPNSGGNNYNEKFKSRVTMTRDTSISTAYMELSRLRSDDTAVYYCARSWYGSSPYYFDYWGQGTLVTVSSASTKGPSVFPLAPCSRSTSESTAALGCLVKDYFPEPVTVSWNSGALTSGVHTFPAVLQSSGLYSLSSVVTVPSSSLGTKTYTCNVDHKPSNTKVDKRV[human IgG4 Fc with S228P (EU numbers) left out]
# light: DIQMTQSPSSLSASVGDRVTISCRASQDIDNYLNWYQQKPGKAPKLLIKYTSRLHSGVPSRFSGSGSGTDFTLTISSLQPEDFATYFCQQGYTLPWTFGGGTKVEIKRTVAAPSVFIFPPSDEQLKSGTASVVCLLNNFYPREAKVQWKVDNALQSGNSQESVTEQDSKDSTYSLSSTLTLSKADYEKHKVYACEVTHQGLSSPVTKSFNRGEC
# notes: also called TS-ZPL-1; Bi-ZPL-1 molecules
# What was measured:
# [1] = target: T1, recombinant human VEGF 165; experiment: blocking ELISA: VEGF-165 coated on the plate, binding of recombinant human VEGFR-2-hu IgG1-His Tag is blocked
# Experimental: Briefly, 0.5 ug/ml of recombinant human VEGF-165 (R&D #293-VE-050/CF) in carbonate-bicarbonate buffer was coated to the wells in a 96-well assay plate and incubated overnight at 4° C. The wells were then washed 3 times with 0.05% Tween 20 in PBS (wash buffer), blocked with 1% BSA in PBS for 1 hour at room temperature, and washed 3 times with wash buffer. 50 μl 5-fold serially diluted antibodies were then added to wells in the plate and incubated for 30 minutes at room temperature. […] 100 μl anti-His tag HRP (1:10,000) was then added and the plates were incubated for 40 mins at room temperature and washed 3 times with wash buffer.
# human TGFβ1 = human TGFβ1 (human, UniProt P01137 partial chain); experiment: cell-based or functional assay
# [2] = target: T1, recombinant human VEGF 165; experiment: cell-based or functional assay
# [3] = target: T1, recombinant human VEGF 165; experiment: cell-based or functional assay; remark: listed apart in the source
# [4] = target: T2, human PD-L1 on transfected CHOK1 cells (human, UniProt Q9NZQ7); experiment: cell-based blocking assay (flow cytometry, iQue): FITC labeled human PD-1-Fc binding to human PD-L1 transfected CHOK1 cells, antibody titrated
# T2 construct: also called Human PD-L1 transfected CHOK1 cells
# T2 sequence (Q9NZQ7 19-290 limits assumed): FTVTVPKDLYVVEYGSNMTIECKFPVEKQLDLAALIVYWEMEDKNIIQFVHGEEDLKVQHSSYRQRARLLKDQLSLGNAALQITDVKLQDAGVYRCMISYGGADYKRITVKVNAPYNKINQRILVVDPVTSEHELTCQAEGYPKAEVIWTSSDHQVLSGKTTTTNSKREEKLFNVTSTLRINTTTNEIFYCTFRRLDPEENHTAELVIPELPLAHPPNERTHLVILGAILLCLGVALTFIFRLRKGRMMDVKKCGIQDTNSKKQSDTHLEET
# Sequence of human TGFβ1 (P01137 279-390 limits assumed): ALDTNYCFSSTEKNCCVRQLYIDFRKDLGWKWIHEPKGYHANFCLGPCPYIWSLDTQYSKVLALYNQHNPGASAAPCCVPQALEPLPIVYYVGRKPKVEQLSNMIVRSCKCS
binder,measurement,setting,value
B1,IC50,[1],1.57 nM
same,IC50; luciferase signal of TGFβ/SMAD SBE Reporter-HEK293 cells stimulated with human TGFβ1,human TGFβ1,0.11 nM
B2,IC50 (read off the curve),[2],~0.2 nM
same,"IC50 (VEGF-induced luciferase signal, cell based VEGF neutralization assay on VEGFR-2 reporter cells)",[3],0.18 nM
B3,IC50,[4],3.3 nM
